Over roughly 1,800 sequences, “median log2 fold change of GCK-ALFA target abundance (FLAG IP / Myc IP barcode read proportion)” has its median near 0.14; the lowest 2% begin near -0.84. Some of the results follow.
T1: TRAF2, Q12933
T1 chain: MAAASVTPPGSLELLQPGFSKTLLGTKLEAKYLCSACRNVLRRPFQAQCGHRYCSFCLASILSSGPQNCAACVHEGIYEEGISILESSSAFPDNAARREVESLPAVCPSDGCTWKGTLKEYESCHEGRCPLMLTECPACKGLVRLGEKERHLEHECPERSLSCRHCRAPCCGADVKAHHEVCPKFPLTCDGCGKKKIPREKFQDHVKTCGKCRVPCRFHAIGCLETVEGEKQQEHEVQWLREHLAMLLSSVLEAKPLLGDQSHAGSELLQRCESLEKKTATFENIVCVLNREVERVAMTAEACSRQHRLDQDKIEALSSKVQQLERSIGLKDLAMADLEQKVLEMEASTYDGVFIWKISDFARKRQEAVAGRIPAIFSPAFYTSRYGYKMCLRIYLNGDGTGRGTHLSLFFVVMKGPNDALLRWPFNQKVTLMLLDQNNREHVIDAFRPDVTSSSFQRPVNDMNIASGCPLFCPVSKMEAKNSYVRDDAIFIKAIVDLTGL

B1: traf2_out_11_169_783 (protein)
chain: KEKEKNRKFNDFALKKEDEAKKKLKEFALKLAKEAGLDVEEVKKIFEDNKGKSLSAIAAALVAYFKAKGKEDEAAAVLKKYEELKDEINKAVTAKMKELE
B2: traf2_out_13_95_1039 (protein)
chain: SAELAKKINELADKAMDEILALLDAAAAAHADDPEAVAVLDEARRLAETRGASEAIHLLRQAAAARPEHAADFDALAAQIEAIRREAGREAAKLIKEAEE
B3: traf2_out_20_3_2091 (protein)
chain: SELEERLREALERALELIEEAIKLADPETAARLEALRARLEAARELPLDEQLVALSEVRRELLELAEEARREGREELARLLEEAAEEVNRAMNLAYKILE
B4: traf2_out_9_17_2627 (protein)
chain: AEAEERLRQAILDTARAYLDELVAEGIISEESRKKLLARFEELLARGLSPDEFTAAVIGTLASTLLVDEKLSVKEAQKHAGELYLRLRAARAAVEAELAA
B5: traf2_out_8_144_2541 (protein)
chain: MMSRREIANRLANILVELDELQKEADPETKEVLTEARRHVGQALNLVVFGGPREEILKHLEAAKEKLEEAQKLVEDNPELKKKVQEILKEVEEIIKDVKA
B6: traf2_out_15_180_1323 (protein)
chain: MTEEELEKRIELANEVSDKVQDKLAALLAAHPQLSPEERAALRALARAVTTLLFNGEEAEAEAAVARAEARLSPEAAAVARELAAFAKKVVEEAKKKLEE
B7: traf2_out_13_95_1145 (protein)
chain: SAEVAEKIMAIADRMLEEKDKILDDLEAQLKEKGLLTPEVAAALEAAKKSSISTAIHTLQELSKKYPEAKALLDEAIAKLEEIKRRAGREVAKILKEEEE
B8: traf2_out_19_16_1985 (protein)
chain: AKEEAEKLIKEMEKYLEEALKLAKETVAKLNELSREELSDNLVEISELVRKAQEALQKALELLKDDPERRAKLQAEYDAKLDEINRLMTIIVNKLEELLK
B9: traf2_out_3_89_2287 (protein)
chain: SEEREKKIEELRRIIDRYLKGFEKSARRVAKEMLEEGYSLDTLEGVLNASKTALVEEIRRLAKERGLSEEDIKELVEEATKRLDEIVDKILEEAKKARAE
B10: traf2_out_17_162_1595 (protein)
chain: SALEEKLKEIEEELKRLREELKKLEEQLKNIDKLTPEELRDLLVEASEIRRRALELLEEIEKLKDEIDEETYERLSSEAEEIAERAQRIANQLYKRLEEL
B11: traf2_out_9_17_2610 (protein)
chain: SEKEEELKKKLLEAIEEVLKELVEEGYITEEEAEEILEKVKELIEKGASPEEIIATFLGDIASILLTKSNLSLPEANKIVGKAYRKLRERLEEIKKELEE
B12: traf2_out_11_169_792 (protein)
chain: EEAEKNRQINDFALELNDKAKKELEKKALALAKEAGLDVEAVKAIFEKHKNASLSAVAAALIAYFKSQGKEDEAAAVLKAYEELKDKINKEATAKIKELE
B13: traf2_out_17_162_1495 (protein)
chain: AAAEEKLKELKKRLEELEKKLEELKKKLPDLPKMSKEELTDLLVEVSELKREALELAEELKKLAKETGSPEAEKLAKRAEELAEEAQRIANEIYKELEKK
B14: traf2_out_13_95_1183 (protein)
chain: SEEAKKKINEIADKMIDEVEAVLDALRAATADDPALAAEIDAIRETARTRGIHEAIGRLRALRAAHPEHAAALDAAIAEMEAIREKAGKEVAKILKEEEE
B15: traf2_out_20_38_2046 (protein)
chain: AEEEAERAENEAIRAAVNKADEEADKLIAEAKAKGISPEELLEMVTEKAVKELNAHGLEDNAERIKERAAHYREEGKYEQGAVEILMSAAAAIAWKKAQE
B16: traf2_out_18_117_1786 (protein)
chain: MKREEIIAELEEIAERLERAASELGNLMLEKWEELSPEEKSEAMDVLADLTEVRREALLLIQKIRAGKIPVEEAIKETEELRKRAEEALKRAEEMIKKIK
B17: traf2_out_18_167_1890 (protein)
chain: SEEIKKKIDYYSDKLVELSEIRRALLEIYELLLEDEEKAKKAIEEALKKFPNSEVIKEVKELSETKTPEELRAFLEEKAEELQKEMNKAYKEREEALKKL
B18: traf2_out_11_169_861 (protein)
chain: EEKEKNRKLIDFALEVEDEAKEKLKKFALELAKEKGLDVEEVKKIFEENKNSSLSAVASALIEYFKAKGEEDAAAKILEKYDELKEEINKKVSAKMKELE
B19: traf2_out_11_169_886 (protein)
chain: EEKEKNRKFNDFALEKNDEAKEKLLKFALELAKEKGLNVEEVKKIYEKNKNKSLSYLASELIKYFKEKGEEDAAEKILKKHEELQEEINKEVTAKMKELE
B20: traf2_out_18_167_1865 (protein)
chain: SEELKKELEEASDRLVELSEIRRTMRTALELLKESREKALAHVKEALKKHPDSEVLKAALEAFETLSDEEIRAFLEETAERLQKEMNKEYKKYEELRKKL
B21: traf2_out_20_3_2228 (protein)
chain: EELEKEAEKELEKLLKQLKAIEARADPETAARLKALIKKLKEAKELDPVDRLVVVSEVRQELLRLRQEAEAAGDAELAAALAKAAELAQRLAQLLYKIIE
B22: traf2_out_13_95_1123 (protein)
chain: SAEVAAKIMAIADKMEEEILKKLEELLKIAKEKGIAEKEIQAIIDKAKHGTVNQVIHDLKELSKKYPELKEEFDKTIKELEAIRSKAGKEVAKILKEEEE
B23: traf2_out_14_149_1251 (protein)
chain: SATEEKKQALKEAAKLMDEIIAILQKALEAGSTEVDKEKIRELLEKAREILKKQGFVLGHLLAMEEMLETTKNWTLEDIERFLAEAKRARESLEVLAEML
B24: traf2_out_3_89_2295 (protein)
chain: AAARAARLAEARANADRYVAGFEKSARWVAKQMLADGHSLETLEGVLNAARSALVAELRESLAERGLSPEDIAALVADFEARLNAIVAAVVAEAKARRAA
B25: traf2_out_11_155_718 (protein)
chain: SKKLELNQELVNEIMEIADEADRRLEELIEEVEKEDPEVARQLRALLEENKDKGITTRLLGAARLLREAGLEEYAERVLELLEETQKKMNELYKEYEKKL
B26: traf2_out_17_162_1516 (protein)
chain: SELEERLEELEEELEELKKKLKEFEEKLKDLEKMSKEELTDLLVEVSEARREARRLAEELRRLKEEIGEERAQELIDEAEEIAERLQRIANKIYKELEKK
B27: traf2_out_13_95_1201 (protein)
chain: EEEKTKKIREVTNAIADELLAHADATAAAVEAATGDAAARDRVLAALRGHGVSAAIHVLRELAAADPEHAATYLAAAADLEAARREAGKRVAEKLKEIEE
B28: traf2_out_13_95_1124 (protein)
chain: SAEVAKKIMEIADEMEARRLALLEALLAKAKAAGKAEAEVQAILDLAEHGTIQEVIHALRELAKKYPEMKAEFDAAIAELEAIRREAGREVAKILKEEEE
B29: traf2_out_20_3_2183 (protein)
chain: EELRRELEEELERALELLRRAAELADPETAERLRELAERLRRSRELSPEDQLVELSEIRREVLRLAEEARAEGREELARVLEEAAEALNRAMNLVYQIIE

Target: T1, TRAF2, Q12933
Test: median log2 fold change of GCK-ALFA target abundance (FLAG IP / Myc IP barcode read proportion) (log2 ratio); each designed protein is fused to an ALFA-tag nanobody in HEK293 cells to bring the named protein to FLAG-tagged glucokinase (GCK); Myc marks an untargeted standard; higher = target protein stabilised (more abundant)
Settings: target protein: 3xFLAG-MCP-GCK-ALFA reporter; HEK293 landing pad (RPLP)
Outline: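 Sequencing of reverse-transcribed, amplified circular RNA barcodes from anti-FLAG and anti-Myc immunoprecipitates provided the readout for an ALFA-nanobody-fused binder library recombined into HEK293 landing-pad cells. Those cells were induced with 2 μg mL^−1 doxycycline, transfected with a plasmid expressing a FLAG-tagged target and a Myc-tagged standard, and lysed after 48 h. Target abundance is the per-binder median log2 ratio of FLAG to Myc barcode read proportions. Only barcodes at a proportion of ≥10^−7 in both replicates and binders with ≥3 barcodes per replicate were kept, with a 10^−6 pseudocount added before the two replicates were pooled.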

Binder	median log2 fold change
B1	0.11
B2	-0.113
B3	-0.0622
B4	-0.033
B5	0.126
B6	0.381
B7	-0.43
B8	0.389
B9	-0.239
B10	-0.127
B11	-0.479
B12	0.154
B13	0.433
B14	0.208
B15	0.111
B16	-0.76
B17	0.406
B18	-0.428
B19	0.121
B20	0.19
B21	0.197
B22	-0.0767
B23	0.231
B24	-0.494
B25	-0.0489
B26	0.107
B27	0.0404
B28	0.0332
B29	0.23

Reference: the supplement of paper PMC12632987
